# The supplement of paper PMC6135742
# Where a name gives a salt, the structure may show the parent alone. ± gives the standard deviation of the averaged measurements. In all, about 2,600 compounds were measured (“MBP+ mature oligodendrocyte number relative to DMSO vehicle control”: median about -0.34, highest 2% from about 13 on). The list shows a part of the results.
# Test system: jimpy (Plp1 jimpy) mouse iPSC-derived oligodendrocyte progenitor cells
# Assay: MBP+ mature oligodendrocyte number relative to DMSO vehicle control (SDs above negative control mean); higher = more surviving jimpy oligodendrocytes (rescue)
# Conditions: 10 µM; 3 days
# 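Also: 10 µM single dose with 3-day oligodendrocyte differentiation.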
row,Structure (SMILES),MBP+ mature oligodendrocyte number
1,"Nc1c2c(nc3ccccc13)CCCC2 [9-Amino-1,2,3,4-tetrahydroacridine hydrochloride]",-0.865
2,O=c1sn(-c2cccc3ccccc23)c(=O)n1Cc1ccccc1 [Tideglusib],-0.769
3,O=c1cc(-c2ccccc2)oc2cc(O)cc(O)c12 [Chrysin],4.59
4,N[C@@H](CS(=O)O)C(=O)O [L-Cysteinesulfinic Acid],0.196
5,COCCCN1CCC(NC(=O)c2cc(Cl)c(N)c3c2OCC3)CC1 [Prucalopride Succinat],1.59
6,COCCCN1CCC(NC(=O)c2cc(Cl)c(N)c3c2OCC3)CC1 [Prucalopride],4.95
7,COC(=O)C1=C(C#N)NC(C)=C(C(=O)OC(C)C)C1c1cccc([N+](=O)[O-])c1 (stereo not given) [Nilvadipine],-5.69
8,N#Cc1cc2nc(O)c(O)nc2cc1[N+](=O)[O-] [CNQX disodium],-0.0207
9,C[C@@H](CN1CCC(Cc2ccccc2)CC1)[C@@H](O)c1ccc(O)cc1 [Ro 25-6981 hydrochloride],14.6
10,C[C@H](CCC(=O)O)[C@H]1CC[C@H]2[C@@H]3[C@@H](O)C[C@@H]4C[C@H](O)CC[C@]4(C)[C@H]3CC[C@]12C [Ursodiol],3.04
11,O=C(Nc1ccncc1)c1cc([N+](=O)[O-])ccc1Cl,-3.33 ± 1.5
12,Cc1cc(NC(=O)Nc2ccc3c(ccn3C)c2)sn1,0.0777
13,O=C(CCCN1CCN(c2ccccn2)CC1)c1ccc(F)cc1 [Azaperone],1.93
14,Cc1ccc(=O)n(-c2ccccc2)c1 [Pirfenidone],1.49 ± 1.9
15,CS(=O)(=O)c1ccc(-n2nc(C(F)(F)F)cc2-c2ccc(F)cc2)cc1,-0.559
16,Cc1cc(CN2CCN(c3c(Br)cnc4nc(-c5ccc(N6CCN(C)CC6)cc5)[nH]c34)CC2)no1,-5.93
17,CN(C)C(=O)[C@H](O)[C@H](Cc1ccccc1)NC(=O)c1cc2cc(Cl)ccc2[nH]1,9.6 ± 4.4
18,O=C(Oc1cc(S(=O)(=O)c2ccccc2)ccc1[N+](=O)[O-])c1ccc(Cl)cc1,2.91
19,COc1ccc(C2CC(=O)c3c(O)cc(OC4OC(COC5OC(C)C(O)C(O)C5O)C(O)C(O)C4O)cc3O2)cc1OC (stereo not given) [Methyl-Hesperidin],-0.612
20,N[C@@H](Cc1cc(I)c(Oc2ccc(O)c(I)c2)c(I)c1)C(=O)O [Liothyronine Sodium],3.95
21,CC(=O)/C=C1/C(=O)N(C)c2ccccc21 [Supercinnamaldehyde],-1.53
22,CC(C)OC(=O)OCOP(=O)(CO[C@H](C)Cn1cnc2c(N)ncnc21)OCOC(=O)OC(C)C [Tenofovir Disoproxil Fumarate],-3.29
23,Nc1cc(Cl)c(NC2=NCCN2)c(Cl)c1 [p-Aminoclonidine hydrochloride],-0.786
24,NO [Hydroxylamine hydrochloride],0.712
25,Nc1nc(Cl)nc2c1ncn2[C@@H]1O[C@H](CO)[C@@H](O)[C@H]1O [2-Chloroadenosine],-1.45
26,Cc1cccc(CC(=O)N2CCc3c2ccc(-c2cn(C)c4ncnc(N)c24)c3F)n1,7.69 ± 0.33
27,Cc1ccc(F)c(NC(=O)Nc2ccc(-c3cccc4[nH]nc(N)c34)cc2)c1 [Linifanib (ABT-869)],-5.74

row,Structure (SMILES),MBP+ mature oligodendrocyte number
1,O=C(/C=C\n1cnc(-c2cc(C(F)(F)F)cc(C(F)(F)F)c2)n1)N1CC(F)(F)C1,< -6.35
2,CC(C)(C)[N+]([O-])=Cc1ccc(S(=O)(=O)O)cc1S(=O)(=O)O,2.35
3,CN1CCN(C(c2ccccc2)c2ccccc2)CC1 [Cyclizine 2HCl],-0.776
4,CC(C)OC(=O)C1=CN(C(=O)c2ccc(F)c(F)c2)CC(C)(C)c2c1[nH]c1ccccc21,1.14
5,"CC[C@H](CO)Nc1nc(NCc2ccccc2)c2ncn(C(C)C)c2n1 [Roscovitine (Seliciclib,CYC202)]",1.16
6,CC[C@H](CO)Nc1nc(NCc2ccccc2)c2ncn(C(C)C)c2n1 [Roscovitine],2.43
7,OCCN(CCO)c1nc(N2CCCCC2)c2nc(N(CCO)CCO)nc(N3CCCCC3)c2n1 [Dipyridamole],9.37 ± 1.7
8,Cc1ccc(NC(=O)c2cccc(C(C)(C)C#N)c2)cc1Nc1ccc2ncn(C)c(=O)c2c1,-1.72
9,CC[C@@H](C)Nc1cc(C(=O)N[C@H]2C[C@H]3CC[C@@H](C2)N3c2ccc(C(=O)C3CC3)cn2)c(C)cc1C(N)=O,< -6.35
10,C[N+](C)(C)CC(=O)O [Betaine hydrochloride],-0.59
11,CSC(=N)NCCC[C@H](N)C(=O)O [S-Methyl-L-thiocitrulline acetate],-0.872
12,CN(c1ccccc1CNc1nc(Nc2ccc3c(c2)CC(=O)N3)ncc1C(F)(F)F)S(C)(=O)=O,< -3.34
13,NS(=O)(=O)c1cc2c(cc1Cl)NC(C1CC3C=CC1C3)NS2(=O)=O (stereo not given) [Cyclothiazide],1.23
14,S=C(S)N1CCCC1 [Ammonium pyrrolidinedithiocarbamate],-1.89
15,CCN(CC)CC(=O)Nc1c(C)cccc1C [Lidocaine hydrochloride],-1.23
16,CCN(CC)CC(=O)Nc1c(C)cccc1C [Lidocaine],1.77
17,c1ccc2c(CC3=NCCN3)cccc2c1 [Naphazoline HCl],0.507
18,c1ccc2c(CC3=NCCN3)cccc2c1 [Naphazoline hydrochloride],-0.48
19,CC(=O)OCC(=O)[C@@]12OC(C)(C)O[C@@H]1C[C@H]1[C@@H]3C[C@H](F)C4=CC(=O)C=C[C@]4(C)[C@@]3(F)[C@@H](O)C[C@@]12C [Fluocinonide],8.84
20,CC(C=CC(=O)NO)=CC(C)C(=O)c1ccc(N(C)C)cc1 (stereo not given) [Trichostatin A (TSA)],< -6.7
21,Nc1ncnc2c1nc(Br)n2C1OC2COP(=O)(O)O[C@@H]2C1O (stereo not given in full) [8-Bromo-cAMP sodium],-0.119
22,OCc1ccccc1O[C@@H]1O[C@H](CO)[C@@H](O)[C@H](O)[C@H]1O [Salicin],-4.75
23,CN1C(CCl)Nc2cc(Cl)c(S(N)(=O)=O)cc2S1(=O)=O (stereo not given) [Methyclothiazide],-4.83
24,C=CC1=C(C(=O)O)N2C(=O)[C@@H](NC(=O)/C(=N\O)c3csc(N)n3)[C@H]2SC1 [Cefdinir],-1.82
25,Cc1cn([C@H]2C=C[C@@H](CO)O2)c(=O)[nH]c1=O [Stavudine (d4T)],1.24
26,CC(=O)NS(=O)(=O)c1ccc(N)cc1 [Sulfacetamide Sodium],2.35
27,C=C1CC[C@@H]2[C@](C)(CO)[C@H](O)CC[C@@]2(C)[C@@H]1C/C=C1/C(=O)OC[C@H]1O [Andrographolide],< -4.81

row,Structure (SMILES),MBP+ mature oligodendrocyte number
1,O=C(Nc1cccc(C(=O)Nc2ccc(S(=O)(=O)O)c3cc(S(=O)(=O)O)cc(S(=O)(=O)O)c23)c1)Nc1cccc(C(=O)Nc2ccc(S(=O)(=O)O)c3cc(S(=O)(=O)O)cc(S(=O)(=O)O)c23)c1,0.813
2,Cc1ccc(S(=O)(=O)Cc2nc(-c3ccc(C(=O)NCc4cccnc4)cc3)oc2C)cc1,< -6.35
3,COc1cccc2c1C(=O)c1c(O)c3c(c(O)c1C2=O)C[C@@](O)(C(C)=O)C[C@@H]3O[C@H]1C[C@H](N)[C@H](O)[C@H](C)O1 [Daunorubicin HCl],-5.37
4,CNC(=O)c1cc(Oc2ccc(NC(=O)Nc3ccc(Cl)c(C(F)(F)F)c3)cc2)ccn1 [Sorafenib Tosylate],4.73
5,CNC(=O)c1cc(Oc2ccc(NC(=O)Nc3ccc(Cl)c(C(F)(F)F)c3)cc2)ccn1 [Sorafenib],1.89
6,O=C(/C=C/c1ccc(O)cc1)c1ccc(O)cc1O [Isoliquiritigenin],-0.717 ± 0.17
7,CS(=O)(=O)OCCCCOS(C)(=O)=O [Busulfan],0.973
8,OCc1c[nH]c2ccccc12 [Indole-3-carbinol],1.46
9,N#CCNC(=O)c1ccc(-c2ccnc(Nc3ccc(N4CCOCC4)cc3)n2)cc1,< -4.81
10,"Nc1cc(=O)[nH]c(N)n1 [2,4-Diamino-6-pyrimidinone]",-0.805
11,N[C@@H](Cc1c[nH]c2ccccc12)C(=O)O [L-Tryptophan],-0.14
12,Cc1ncc(-c2ccnc(Nc3ccc(S(C)(=O)=O)cc3)n2)n1C(C)C,< -6.01
13,OC[C@H]1O[C@@H](n2cnc3c(N[C@H]4CCC[C@@H]4O)ncnc32)[C@H](O)[C@@H]1O,0.549
14,COC1(C2=NCCN2)COc2ccccc2O1 (stereo not given),0.896
15,O=C(Nc1cc(C(F)(F)F)cc(C(F)(F)F)c1)Nc1c(Br)cc(Br)cc1-c1nn[nH]n1,-1.85
16,COc1cc2nccc(Oc3ccc(NC(=O)NC4CC4)c(Cl)c3)c2cc1C(N)=O [Lenvatinib (E7080)],-1.46
17,CCC(C)(Oc1ccc(C2(c3ccc(OC(C)(CC)C(=O)O)cc3)CCCCC2)cc1)C(=O)O (stereo not given) [Clinofibrate],7.64
18,C[C@@H](O[C@H]1OCCN(Cc2nn(P(=O)(O)O)c(=O)[nH]2)[C@H]1c1ccc(F)cc1)c1cc(C(F)(F)F)cc(C(F)(F)F)c1 [Fosaprepitant dimeglumine salt],-2.44
19,CCn1c(=O)[nH]c2cc(Cl)c(Cl)cc21,-0.91
20,CN1C(=O)CC[C@H]1c1cccnc1 [(-)-Cotinine],0.0777
21,Cc1c(CN2CCN(C(=O)[C@H](C)O)CC2)sc2c(N3CCOCC3)nc(-c3cnc(N)nc3)nc12,< -6.01
22,CC(C)(CO)c1cc2cc(NC(=O)C3(c4ccc5c(c4)OC(F)(F)O5)CC3)c(F)cc2n1C[C@@H](O)CO,5.22
23,Cc1cnc(-c2cc(N3CCN(C(=O)CCS(C)(=O)=O)CC3)ncc2Cl)c(C)c1,0.184
24,CC[C@@H]1C(=O)OC[C@@H]1Cc1cncn1C [Pilocarpine nitrate],-2.56
25,CC[C@@H]1C(=O)OC[C@@H]1Cc1cncn1C [(+)-Pilocarpine hydrochloride],-1.46
26,CC[C@@H]1C(=O)OC[C@@H]1Cc1cncn1C [Pilocarpine HCl],-1.62
